According to PubChem BioAssay AID1745853 (National Center for Advancing Translational Sciences (NCATS), 2022):
The list shows a part of the results. These are further read-outs of the screen, such as a control signal, another cell line or another target. No call is given for them.

Key:
Test in all cases: Primary Screen for Target Class Profiling of Small Molecule Inhibitors of Methyltransferases
[1] = biological target: Glycine N-methyltransferase (Homo sapiens) (UniProt Q14749); details: purified enzyme, MTase-Glo SAH luminescence; measured here: GNMT inhibition; at 40 µM; stronger effect = lower value
Outline: (§1)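 Each enzyme was assayed with SAM and its substrate. SAH formation detected by MTase-Glo luminescence; single-point 40 uM screen[…].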

[2] = biological target: Guanidinoacetate N-methyltransferase (Homo sapiens) (UniProt Q14353); details: purified enzyme, MTase-Glo SAH luminescence; measured here: GAMT inhibition; at 40 µM; stronger effect = lower value
Outline: as §1

[3] = biological target: Histamine N-methyltransferase (Homo sapiens) (UniProt P50135); details: purified enzyme, MTase-Glo SAH luminescence; measured here: HNMT inhibition; at 40 µM; stronger effect = lower value
Outline: as §1

[4] = biological target: Nicotinamide N-methyltransferase (Homo sapiens) (UniProt P40261); details: purified enzyme, MTase-Glo SAH luminescence; measured here: NNMT inhibition; at 40 µM; stronger effect = lower value
Outline: as §1

[5] = biological target: Phenylethanolamine N-methyltransferase (Homo sapiens) (UniProt P11086); details: purified enzyme, MTase-Glo SAH luminescence; measured here: PNMT inhibition; at 40 µM; stronger effect = lower value
Outline: as §1
% is scaled to controls: 0 for no effect and ±100 for the full control effect.

Structure (SMILES) | activity change, negative = inhibition [1] [%] | activity change, negative = inhibition [2] [%] | activity change, negative = inhibition [3] [%] | activity change, negative = inhibition [4] [%] | activity change, negative = inhibition [5] [%]
Cn1nc(C2CC2)cc1NC(=O)C(C)(C)C | -7.09 | -12 | -5.66 | -15.1 | -11.3
COc1ccc(NC(=O)N2CCc3c(nc4cc(-c5ccccc5)[nH]n4c3=O)C2)c(OC)c1 | -11.4 | -7 | -13.6 | -7.79 | 4.99
Cn1c(=O)n(C)c2cc(S(=O)(=O)Nc3ccc(Br)cc3)ccc21 | -13.6 | 1.43 | -7.51 | 2.37 | -10.5
O=C(NCc1ccco1)Nc1cccc(-c2ccc(N3CCCC3)nn2)c1 | -26.1 | -6.81 | -23.8 | -6.5 | -12.6
Cc1noc2c(NC3CCOCC3)cc(-c3ccsc3)nc12 | -20.1 | -17.7 | -28 | -31.3 | -25.3
CCCn1c(=O)c2ccc(C(=O)NC3CCCC3)cc2n2c(=O)n(CC(=O)c3cccc(OC)c3)nc12 | 4.17 | 0 | 3.45 | -0.237 | 0.418
COc1ccc2c(c1)c(NC(C)=O)c1n2CC(C)(C(=O)NC2CCCCCC2)N(CCC(C)C)C1=O (stereo not drawn) | 3.44 | 4.72 | 5.54 | 6.25 | -0.165
COc1ccc(CN2CCc3ncc(C(=O)NCc4ccc5c(c4)OCO5)n3CC2)cn1 | -10.1 | -12 | -6.23 | -21.2 | -13.8
CSc1ccc(CCNC(=O)CCn2ccc3cc(S(=O)(=O)N4CCCC4)ccc32)cc1 | 2.72 | 0 | 4.61 | -1.06 | 2.82
CCCN1C(=O)c2c(C(=O)NCc3ccc(OC)cc3)ncn2CC1(C)C(=O)NCCC(C)C (stereo not drawn) | -2.03 | 1.99 | -0.517 | -0.361 | 2.27
O=S(=O)(c1cccnc1)N1CCC(N(Cc2cccnc2)C2CCOCC2)CC1 | -0.022 | 0.505 | 2.26 | -1.85 | -0.981
COc1cc(C(N)=O)nc(-c2ccccn2)c1O | -13.9 | -14.4 | -2.86 | -26.6 | -6.5
CCCNC(=O)N(C1CCOCC1)C1CCN(C(=O)CCC(=O)c2ccc(F)cc2)CC1 | 23.6 | -4.71 | -1.62 | -3.47 | -7.68
COc1ccc(CNC(=O)c2cc3n(n2)CC(C)(C(=O)NCCC(C)C)N(C)C3=O)c(OC)c1 (stereo not drawn) | 2.37 | 0 | 1.53 | -3.97 | 1.85
O=C(CCC[C@@H]1[C@H]2CCCN3CCC[C@@H](CN1C(=O)c1ccccc1F)[C@@H]23)N1CCOCC1 | -1.02 | -1.97 | -1.04 | -7.75 | 3.58
C(#Cc1cccc(CN2CCOCC2)c1)CCN1CCCCC1 | 6.1 | 4.66 | -4.76 | -10.2 | 1.6
CN1[C@@H]2CC[C@H]1CC(NC(=O)n1c(=O)[nH]c3ccccc31)C2 (stereo partly drawn) | -7.5 | 3.81 | -11.4 | -19.4 | -14
CN1C(=O)c2cc(C(=O)NCc3ccc(F)cc3)nn2CC1(C)C(=O)NCc1ccc(F)cc1 (stereo not drawn) | 7.09 | 0 | 2.87 | 7.2 | 0.393
Cc1noc(C)c1CCNC(=O)c1cc2n(n1)CC(C)(C(=O)NCc1ccc(F)cc1)N(C)C2=O (stereo not drawn) | -0.742 | 2.09 | 1.95 | -4.77 | -4.75
CC(C)CCn1c(=O)c2ccccc2n2c(SCC(=O)NCc3ccccc3Cl)nnc12 | 2.87 | 0.493 | 7.08 | -1.99 | 5.87

Structure (SMILES) | activity change, negative = inhibition [1] [%] | activity change, negative = inhibition [2] [%] | activity change, negative = inhibition [3] [%] | activity change, negative = inhibition [4] [%] | activity change, negative = inhibition [5] [%]
CCOC(=O)c1ccc(NC(=O)N2CCn3c(C)ccc3C2CC)cc1 (stereo not drawn) | -1.55 | 2.21 | 1.93 | -4.24 | -1.74
O=C(NCc1ccc(Cl)cc1)C1CC(=O)N(c2n[nH]c3cccc(F)c23)C1 (stereo not drawn) | -1.47 | 2.77 | 3.96 | -3.25 | 12.4
COCCOC1CCOC2(CCN(C(=O)CCCc3ccccc3)CC2)C1 (stereo not drawn) | -0.15 | 4.65 | 2.06 | -4.05 | 16.6
COc1ccccc1CN1C(=O)c2ccc(-c3ccco3)n2CC1(C)C(=O)NC1CCCC1 (stereo not drawn) | -11.1 | -11.5 | -0.446 | -11 | -8.86
CC(C)Cn1c(=O)c2ccccc2n2c(=O)n(CC(=O)c3cccc(Cl)c3)nc12 | 2.84 | 0.867 | 6.61 | -35.2 | 3.3
O=S(=O)(N[C@H]1CO[C@H]2[C@@H]1OC[C@@H]2n1nnnc1Oc1cccc(N2CCOCC2)c1)c1cccs1 | -2.28 | -3.64 | -1.82 | -4.61 | -0.581
CC(C)OCCCn1c(=O)c2ccccc2n2c(CCC(=O)N3CCN(c4ccc(F)cc4)CC3)nnc12 | -10.6 | 0 | 1.89 | -2.5 | 2.68
CC1(C(=O)NC2CCCCCC2)Cc2ccccc2C(=O)N1Cc1cccnc1 (stereo not drawn) | 0.057 | 0 | 12.1 | 13.3 | 4.32
CSc1cccc(N2C(=O)c3cc(-c4cccs4)nn3CC2(C)C(=O)NC2CCCCCC2)c1 (stereo not drawn) | 3.08 | 0 | 6.74 | 3.05 | 0.843
O=C(Cc1ccsc1)N1CCC2(CC1)N=C(c1ccccc1)NO2 | -4.67 | -3.35 | -3.51 | -7.4 | -1.84
CC(C)OCCCn1c(=O)c2ccccc2n2c(CCC(=O)N3CCN(c4cccc(Cl)c4)CC3)nnc12 | -16 | 0.56 | -2.37 | -33.2 | -6.34
COc1cccc(CN2C(=O)c3ccc(-c4ccco4)n3CC2(C)C(=O)NC2CCC(C)CC2)c1 (stereo not drawn) | -0.916 | 4.97 | -1.28 | -6.53 | -0.236
CCC(C)NC(=O)c1ccc2c(=O)n(CC(C)C)c3nn(Cc4cccc(F)c4)c(=O)n3c2c1 (stereo not drawn) | -4.87 | 4.28 | -0.015 | -4.47 | 1.38
COc1cc(N2CCN(C(C)=O)CC2)ccc1Nc1ncc(Cl)c(Nc2ccc(N3CCN(C(C)=O)CC3)cc2OC)n1 | -34.1 | 0.608 | -29 | -35.5 | -21.1
CC1CCC2C(C)(C)[C@@H](O)CC[C@]2(C)C12Cc1c(O)cc3c(c1O2)CN(C(CCC(=O)O)C(=O)O)C3=O (stereo partly drawn) | 2.5 | 3.71 | 6.68 | -6.64 | -5.22
COc1ccc(-c2nnn3c2nc(N2CCC(C)CC2)c2ccccc23)cc1 | -4.09 | 3.3 | -2.02 | -6.76 | -5.19
COC1C(OC(=O)/C=C/C=C/C=C/C=C/C(=O)O)CCC2(CO2)C1C1(C)OC1CC=C(C)C (stereo not drawn) | 1.95 | 5.58 | 7.01 | -6.88 | -4.19
COc1ccc2cc3n(c2c1)CC(C)(C(=O)NC1CCCCC1)N(Cc1ccccc1Cl)C3=O (stereo not drawn) | 0.692 | 0 | 3.01 | 3.27 | 2.12
CC[C@@H](Nc1c(Nc2cccc(C(=O)N(C)C)c2O)c(=O)c1=O)c1ccc(C)o1 | -1.32 | -5.39 | 6.59 | -18.1 | -1.87
CC(C)Cn1c(=O)c2ccccc2n2c(SCc3ccc(Cl)cc3)nnc12 | -2 | 1.46 | 3.21 | -3.72 | 4.38

Structure (SMILES) | activity change, negative = inhibition [1] [%] | activity change, negative = inhibition [2] [%] | activity change, negative = inhibition [3] [%] | activity change, negative = inhibition [4] [%] | activity change, negative = inhibition [5] [%]
COC(=O)[C@@H]1Cc2ncn(Cc3ccc(Cl)cc3)c2CN1S(=O)(=O)c1cccs1 | -47.9 | -5.73 | -4.79 | -19.1 | -5.56
NCc1ccc(Nc2ncc(F)c(Nc3ccccc3)n2)cc1 | -7.8 | 0.892 | -1.14 | -24.2 | -5.52
Cc1ccc(CCNC(=O)c2ncn3c2C(=O)N(C2CC2)C(C)(C(=O)NCc2ccc(F)cc2)C3)cc1 (stereo not drawn) | -9.37 | -1.75 | -8.22 | -6.56 | -6.6
C[S+](=O)([O-])NCCNC(=O)c1cccc(-c2ccsc2)c1 | -3.71 | -0.886 | -0.871 | -2.43 | 2.23
COC(=O)c1ncn2c1C(=O)N(CCc1ccc(OC)c(OC)c1)C(C)(C(=O)NC1CCCCC1)C2 (stereo not drawn) | 4.52 | 1.6 | 7.75 | 10.1 | 6.34
COc1ccc2cc1Oc1ccc(cc1)CC1c3cc(c(OC)cc3CCN1C)Oc1c(OC)c(OC)c(OC)c3c1C(C2)N(C)CC3 (stereo not drawn) |  | 13.1 |  | -9.92 | -7.72
Cc1cc2c(cc3n2CC(C)(C(=O)NC2CCCCCCC2)N(CCCN2CCCCC2)C3=O)o1 (stereo not drawn) | 4.57 | 0 | 7.64 | 14.2 | 5.14
C/C=C/C=C/C=C/C(=O)O[C@@H]1C=C2COC(=O)[C@]2(O)[C@@]2(C)CCCC(C)(C)[C@H]12 | -1.06 | -23.2 | -4.59 | -38.9 | 0.45
COc1cc2c(cc1O)[C@H](c1ccc(O[C@@H]3O[C@H](CO)[C@@H](O)[C@H](O)[C@H]3O)c(OC)c1)[C@@H](CO)[C@](O)(CO)C2 | -2.85 | 8.53 | 0.143 | -5.87 | 4.78
CCCCOc1ccc(S(=O)(=O)n2c(C)nc3ccccc32)cc1 | 5.74 | 3.43 | 5.52 | -1.13 | 9.13
CC(CNC(=O)c1nnn2c1c(=O)[nH]c1cc(F)ccc12)c1ccccc1 (stereo not drawn) | -11.4 | 0 | -44.6 | -9.62 | -0.887
Cc1ccccc1NC(=O)CSc1nnc2n(CCC(C)C)c(=O)c3ccccc3n12 | -3.67 | 0 | 4.43 | -6.29 | 2.77
NS(=O)(=O)c1ccc(CCNc2nc3c(S(=O)(=O)c4ccccc4)nnn3c3ccccc23)cc1 | -14.6 | 2.09 | 2.06 | -9.09 | -1.67
COc1ccc(C(=O)C2CCCN(Cc3csc(C(C)=O)c3)C2)c(OC)c1 (stereo not drawn) | -13.8 | -2.42 | -3.69 | -6.73 | -8.88
Cc1nnc2ccc(N3CCN(C(=O)c4ccncc4)CC3)nn12 | -6.14 | -3.58 | 0.339 | -13.1 | -11.7
Cc1ccc(NC(=O)CSc2nnc3n(Cc4ccc(F)cc4)c(=O)c4ccccc4n23)cc1 | 2.98 | 0 | 10.3 | 3.74 | 6.26
CC1(C(=O)NC2CCCCCC2)Cn2c(ccc2-c2ccccc2)C(=O)N1CCCN1CCOCC1 (stereo not drawn) | 0.551 | -2.02 | -1.14 | -5.13 | -3.15
CCOC(=O)c1cc2n(n1)CC(C)(C(=O)NC1CCC(C)CC1)N(c1cccc(CC)c1)C2=O (stereo not drawn) | -1.55 | 3.88 | -0.024 | -6.17 | 0.704
CCCOc1ccc(CN2C(=O)c3c(C(=O)OC)ncn3CC2(C)C(=O)NCc2ccccc2)cc1 (stereo not drawn) | 6.97 | 0.387 | 14.6 | 0.525 | 10.9
